This is an account of results in PubChem BioAssay AID1347073 (National Center for Advancing Translational Sciences (NCATS), 2019).

Out of some 45,000 compounds screened, about 200 (0.44%) were called active. Another 7% or so got no clear call; they are omitted. Calls follow the shape of the dose curve; as a rule, active = well fitted activation curve with a large enough effect; inconclusive = small, poorly fitted or top-dose-only effect; inactive = no such curve, though single readings can be large or run the other way. Some of the results follow.

A short description of the test: qHTS of TDP-43 Inhibitors: NCGC Sytravon Library Screen. Also: 0% is about no effect; nearly all actives have a fitted effect of over 55% in size. The note with it: yeast TDP-43 toxicity rescue, BacTiter-Glo growth, 24 h; series mostly up to 46.1 µM; growth rescue (activation): at the top concentration. An outline of the steps: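 TDP-43-expressing yeast, pregrown in raffinose, seeded at OD600 0.02 in galactose medium with compound for 24 hr at 30 deg C. Growth read by BacTiter-Glo luminescence, so rescue of toxicity appears as activation.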
(qHTS replaces the single test concentration by a dilution series.)
In the case of `CCCCc1n(CC(=O)c2ccc(Cl)cc2)c2ccccc2[n+]1C`, the “growth rescue (activation)” value is inactive: -12.2%.

On to `O=C(Cn1cc(C(F)(F)F)cc(Cl)c1=O)Nc1cc(S(=O)(=O)N2CCOCC2)ccc1Cl`, for which the “growth rescue (activation)” value was inactive: -0.63%.

Consider `Cc1nnc(SCC(=O)NNC(=O)c2ccc(Br)cc2)n1C`, for which the “growth rescue (activation)” value was inactive: -9.78%.

Regarding `O=C(CSc1nc2ccccc2o1)Nc1nc(-c2ccccc2)c(-c2ccccc2)s1`, the “growth rescue (activation)” value was inactive: 16.4%.

For `Cc1ccccc1C1CC(c2cccs2)=NN1S(C)(=O)=O` (configuration not stated), the “growth rescue (activation)” value is inactive: 1.57%.

With `CCn1cc(C(=O)O)c(=O)c2cnc(N3CCN(C(=S)Nc4ccccc4)CC3)nc21`, the “growth rescue (activation)” value was inactive: 7.71%.

Take `Cc1c(N2C(=O)C3C4C=CC(C4)C3C2=O)c(=O)n(-c2ccccc2)n1C` (configuration not stated): the “growth rescue (activation)” value is inactive: 10.4%.

As for `CCOc1ccccc1NC(=O)Cc1csc(COc2cccc(C)c2)n1`, the “growth rescue (activation)” value is inactive: 6.68%.

Regarding `COCCN(C(=O)c1csnn1)C(C(=O)NC1CCCCC1)c1ccc(Cl)cc1` (configuration not stated), the “growth rescue (activation)” value is inactive: -3.86%.

Take `COc1cccc(C2C(C(=O)c3cc4ccccc4o3)=C(O)C(=O)N2c2cc(C)on2)c1OC` (configuration not stated): the “growth rescue (activation)” value is inactive: 8.39%.

On to `CC1(C)CC(CCNS(=O)(=O)c2ccccc2)(c2ccccc2)CCO1` (configuration not stated), for which the “growth rescue (activation)” value was inactive: 3.13%.

Regarding `COc1ccccc1-c1cc2nc(C)c(CCC(=O)NCc3ccc(F)cc3)c(C)n2n1`, the “growth rescue (activation)” value is inactive: 19%.

`COc1ccc(C2=NC(CO)(CO)CO2)cc1`: the “growth rescue (activation)” value is inactive: 10.1%.

On to `Cc1ccc(N2C(=O)NC(NS(=O)(=O)c3ccccc3)(C(F)(F)F)C2=O)cc1` (configuration not stated), for which the “growth rescue (activation)” value was inactive: 16.3%.

For the molecule `CCOC(=O)CSc1nc2c(cnn2-c2ccc(F)cc2)c(=O)[nH]1`, the “growth rescue (activation)” value is inactive: 15.8%.

In the case of `Cc1ccc(NC(=O)c2cncc(Br)c2)cc1S(=O)(=O)N(C)C`, the “growth rescue (activation)” value was inactive: 4.56%.

As to `CN(C)C(=S)SCCn1c(N)nc(N(C)C)nc1=O`, the “growth rescue (activation)” value is inactive: 7.56%.

For `C/C(=N\Nc1ccc(F)cc1F)c1ccc(Br)s1`, the “growth rescue (activation)” value was inactive: 23.8%.

Consider `COc1ccc(C2C=C(C)Nc3nc4ccccc4n32)cc1` (configuration not stated), for which the “growth rescue (activation)” value is inactive: -35.3%.

In the case of `CCc1nc2c(OCCOc3ccc(F)cc3)cccn2c1N(C)C(=O)c1cccs1`, the “growth rescue (activation)” value is inactive: -19.9%.

Take `CC1=C(C(=O)NC2CC(C)(C)Cc3c2cnn3-c2ccc(C)cc2)OCCO1` (configuration not stated): the “growth rescue (activation)” value is inactive: 31.1%.

In the case of `Cc1cccc(CNC(=O)CC2C(=O)NCCN2C2CCCC2)c1` (configuration not stated), the “growth rescue (activation)” value is inactive: 7.71%.

`COc1ccccc1OCC(=O)Nc1ccc(S(=O)(=O)N2CCN(C)CC2)cc1`: the “growth rescue (activation)” value was inactive: 2.64%.

In the case of `CCc1nnc(NC(=O)CCn2cnc3ccccc3c2=O)s1`, the “growth rescue (activation)” value was inactive: 1.26%.

On to `Cc1ccc(N(CCC(=O)NC(C)(C)C)S(=O)(=O)c2ccc(C)cc2)cc1`, for which the “growth rescue (activation)” value is inactive: 11.3%.

On to `CC(=O)OCCNC(=O)Cn1cnc2c1c(=O)n(C)c(=O)n2C`, for which the “growth rescue (activation)” value was inactive: 11.5%.

As for `Oc1ccc(N2CCN(Cc3cc4c(cc3Br)OCCO4)CC2)cc1`, the “growth rescue (activation)” value was inactive: 4.96%.

Consider `CC(C)(C)C1CCC(C(=O)NCCc2ccc(S(N)(=O)=O)cc2)CC1` (configuration not stated), for which the “growth rescue (activation)” value was inactive: 12.1%.

For `C=CCN(C(=O)CCC(=O)Nc1cc(C)on1)C(C(=O)NC1CCCC1)c1ccc(C)cc1` (configuration not stated), the “growth rescue (activation)” value is inactive: -15.9%.

With `COC(=O)c1cc(OC)c(OC)cc1NC(=O)Nc1cccc(C(C)=O)c1`, the “growth rescue (activation)” value is inactive: -3.88%.

As for `COc1ccc2nc3ccccc3nc2c1NC(=O)c1ccc(Br)cc1`, the “growth rescue (activation)” value was inactive: 8.57%.

`Cc1ccc(-n2nc(CC#N)c(C#N)c2N)cc1Cl`: the “growth rescue (activation)” value is inactive: -8.34%.

Turning to `CCc1ccc(S(=O)(=O)N2CCCC(N3CCN(c4ccc(OC)cc4)CC3)C2)cc1` (configuration not stated), the “growth rescue (activation)” value is inactive: 14.6%.

For `CC(C)(C)C(=O)Nc1ccc(N2CCN(S(C)(=O)=O)CC2)cc1`, the “growth rescue (activation)” value was inactive: 1.76%.

For the molecule `CCOC(=O)c1cnc2c(Cl)c(Cl)ccc2c1NCCN1CCOCC1`, the “growth rescue (activation)” value was inactive: 4.15%.

Regarding `COc1cc(/C=C/C(=O)O)ccc1OS(=O)(=O)c1ccc(C)cc1`, the “growth rescue (activation)” value was inactive: 1.99%.

For `Cc1cc(NS(=O)(=O)c2ccc(NC(=O)CSc3nnc(-c4ccco4)n3N)cc2)nc(C)n1`, the “growth rescue (activation)” value was inactive: 6.46%.

`CCCS(=O)(=O)N1CCC(C(=O)NCCCN(CC)c2cccc(C)c2)CC1`: the “growth rescue (activation)” value is inactive: 34.3%.

`COc1ccc(C2=Nc3ccccc3OC2)cc1`: the “growth rescue (activation)” value is inactive: 23.2%.

As to `O=C(COC(=O)C1C2CC3OC(=O)C1C3C2)Nc1ccc(F)cc1` (configuration not stated), the “growth rescue (activation)” value was inactive: 16%.

As for `CC1CCCCC1NC(=O)c1ccc(S(=O)(=O)NNC(=O)c2ccncc2)cc1` (configuration not stated), the “growth rescue (activation)” value is inactive: -2.45%.

On to `Cc1ccc(-c2nn(-c3ccccc3)cc2C(=O)Nc2cccc(S(=O)(=O)N3CCOCC3)c2)cc1`, for which the “growth rescue (activation)” value was inactive: 6.37%.

Turning to `O=C(CCc1ccccc1)NNC(=O)c1ccc(F)cc1`, the “growth rescue (activation)” value is inactive: 4.8%.

For `CC(C)c1ccc2[nH]c3nc(SCC(=O)N4CCOCC4)nnc3c2c1`, the “growth rescue (activation)” value was inactive: 16.9%.

As to `COc1ccc(Cl)cc1NC(=O)NC(C)C(C)(C)C` (configuration not stated), the “growth rescue (activation)” value was inactive: 16.2%.

Take `Cc1c(C(C)C)c(=O)n(-c2ccc(S(=O)(=O)NC3CCCCC3)cc2)n1C`: the “growth rescue (activation)” value was inactive: -11.3%.

With `Cc1cc(=O)oc2cc(OC(C)C(=O)Nc3ccc(N4CCCCC4)cc3)ccc12` (configuration not stated), the “growth rescue (activation)” value is inactive: -28.5%.

For the molecule `O=C1CC(CC(=O)N/N=C/c2ccccc2[N+](=O)[O-])=NN1`, the “growth rescue (activation)” value was inactive: 17.1%.

As for `COc1ccccc1C(NC(=O)C1CCN(CCOc2ccccc2)CC1)c1ccccn1` (configuration not stated), the “growth rescue (activation)” value was inactive: 11.8%.

Regarding `COc1ccc(N/N=C(C)/C(=N/O)C(=O)Nc2ccccc2)cc1`, the “growth rescue (activation)” value is inactive: 25.5%.

Turning to `CCOc1cccc(/C=N/Nc2ccc(S(=O)(=O)N(CC)CC)cn2)c1O`, the “growth rescue (activation)” value was inactive: 6.49%.

Take `COc1ccccc1C(=O)Nc1ccccc1C(=O)N1C(C)CCCC1C` (configuration not stated): the “growth rescue (activation)” value was inactive: 8.38%.

`Cc1cnccc1CNC(=O)CC1C(=O)NCCN1CC(C)(C)C` (configuration not stated): the “growth rescue (activation)” value was inactive: -5.23%.

On to `COCCCN(C(=S)Nc1c(C)cc(C)cc1C)C(C)c1ccncc1` (configuration not stated), for which the “growth rescue (activation)” value was inactive: 21.1%.

Turning to `O=c1nc(Nc2ccccc2)sc2ccc([N+](=O)[O-])cc12`, the “growth rescue (activation)” value was inactive: -1.43%.

For the molecule `CC(C)c1nnc(NC(=O)c2cc3cc(Br)ccc3oc2=O)s1`, the “growth rescue (activation)” value is inactive: 15.7%.

As for `CCOC(=O)c1cc2[nH]c3ccccc3c2[n+](-c2ccc([N+](=O)[O-])cc2)c1C`, the “growth rescue (activation)” value is inactive: 4.13%.

For the molecule `Cc1cc(C(F)(F)F)nc(CCNCc2c(C(=O)N3CCCC3)nc3ccccn23)n1`, the “growth rescue (activation)” value is inactive: -15.8%.

In the case of `CCCCCSc1nc2c(cnn2-c2ccc(F)cc2)c(=O)[nH]1`, the “growth rescue (activation)” value is inactive: -5.26%.

With `C=CCNc1nc(Nc2ccc(OC)c(OC)c2)c2sc(-c3ccccc3)cc2n1`, the “growth rescue (activation)” value is inactive: 14.2%.

Regarding `CC(C)(C)Nc1nc(N2CCCC2)nc(N2CCCC2)n1`, the “growth rescue (activation)” value is inactive: 5.42%.

Take `CC1(C)Oc2ccc3ccc(=O)oc3c2/C(=C/Nc2cccc(O)c2)C1=O`: the “growth rescue (activation)” value was inactive: 11.6%.

`CC(C)c1ccc(/C=C2\C(=O)N(CCN3CCOCC3)C(=S)N2C)cc1`: the “growth rescue (activation)” value was inactive: 14.4%.

For `O=C1Nc2ccccc2/C1=N\N=C\c1ccc(O)c(O)c1`, the “growth rescue (activation)” value is inactive: -11%.

For the molecule `CCC(C)NC(=O)Cn1c(COc2ccc(Cl)cc2Cl)nc2ccccc21` (configuration not stated), the “growth rescue (activation)” value was inactive: 11.4%.

Turning to `O=C(CCCn1c(=O)c2sccc2n(CC(=O)NCC2CCCO2)c1=O)NCc1ccco1` (configuration not stated), the “growth rescue (activation)” value was inactive: -8.18%.

`Cc1[nH]c2ccc(C(=O)N3CCC(C(N)=O)CC3)cc2c1C`: the “growth rescue (activation)” value was inactive: 14.7%.
